Experimental data: PubChem BioAssay AID1347120 (National Center for Advancing Translational Sciences (NCATS), 2019)
The campaign covered roughly 390,000 compounds. About 930 (0.24%) were called active. Inconclusive means that the source gave no clear call. Such entries were picked first, then a sample of the others. The call rests on the fitted dose curve; in most records, active means well fitted activation curve with a large enough effect; inconclusive means small, poorly fitted or top-dose-only effect; inactive means no such curve, though single readings can be large or run the other way. Where the call is inconclusive, the potency comes from a doubtful curve fit.

Test: qHTS for Suppressors of FUS Proteinopathy: Primary screen using FUS-linked yeast assay; further: nearly all actives have a fitted effect of over 55% in size;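 on growth rescue (activation): plate controls were DMSO vehicle for no effect and reference control for full effect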
Conditions: S. cerevisiae FUS-expressing, OD600, 24 h; Potency: growth rescue; growth rescue (activation): at 76.6 µM (top of the series)
Procedure, shortened: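 S. cerevisiae expressing FUS from galactose induction served as the toxicity model. Growth after 24hr at 30C, read as absorbance at 600 nm, indicates suppression of toxicity; compounds dosed at several concentrations.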
Potency means the concentration at half of the fitted maximal effect; tags describe the fitted curve by direction and shape.

Row | Compound | Potency | growth rescue (activation)
1 | CCn1ccc2c(OCC(=O)Nc3ccc(C)c(Cl)c3)cccc2c1=O | inconclusive: 35.5 µM [activator, single point] | –
2 | COc1cccc(N2CCN(C(=O)CCSCc3ccccc3F)CC2)c1 | inactive | –
3 | CCOC(=O)C(Sc1ncc(C#N)c(N)n1)C(C)C (stereo not drawn) | – | inconclusive: 47.5% [activator]
4 | CC(C)(C)c1ccc(-c2nnc(SCC(=O)Nc3ccccc3-c3ccccc3)n2Cc2ccco2)cc1 | inconclusive: 20 µM [activator, partial curve] | –
5 | Cc1ccc(N2C(=O)CC(N(CCc3ccccc3)C(=S)Nc3ccc(N(C)C)cc3)C2=O)cc1 (stereo not drawn) | inconclusive: 31.6 µM [activator, partial curve, poor fit] | –
6 | O=C(N/N=C/C=C/c1ccco1)/C(=C/c1ccccc1)NC(=O)c1ccccc1 | inconclusive: 28.2 µM [activator, single point] | –
7 | c1ccc(-c2nc3c(ccc4ccccc43)[nH]2)nc1 | inconclusive: 22.4 µM [activator, partial curve, poor fit] | –
8 | CCOc1ccc(C(=O)N2CCc3ccccc32)cc1 | – | inactive: -11.2%
9 | COCc1cc(C)nc2sc3c(c12)NC(c1ccccc1C(=O)O)N(c1cccc(C(F)(F)F)c1)C3=O (stereo not drawn) | inconclusive: 35.5 µM [activator, single point] | –
10 | CCCC(=O)c1ccc(N2CCN(C(=O)c3ccccc3Br)CC2)c(F)c1 | – | inactive: 28.5%
11 | NC(=S)N/N=C/c1ccc(-c2cc(Cl)ccc2Cl)o1 | inconclusive: 3.98 µM [activator, full curve] | –
12 | COc1ccccc1NC(=O)/C=C\c1ccco1 | inconclusive: 17.8 µM [activator, partial curve, poor fit] | –
13 | CCCc1nc2ccccc2c(C(=O)OCc2nnc(-c3cc(OC)c(OC)c(OC)c3)o2)c1CC | inconclusive: 25.1 µM [activator, partial curve] | –
14 | COCCCN=C1NN=C(c2cc(C)n(Cc3ccccc3Cl)c2C)CS1 | inconclusive: 12.6 µM [activator, partial curve, poor fit] | –
15 | CCCCOc1ccc(C(=O)NC2CCCCN(C(C)C)C2=O)cc1 (stereo not drawn) | – | inactive: 28.5%
16 | CCn1ncc(/C=N\NC(=O)c2ccc3c(c2)c(C)c(C)n3Cc2ccccc2)c1C | inconclusive: 25.1 µM [activator, partial curve, poor fit] | –
17 | CCc1cc(C(=O)OC)c(NC(=O)c2ccoc2C)s1 | – | inactive: 4.52%
18 | O=C(CSc1nc(-c2ccco2)cc(C(F)(F)F)n1)Nc1ccc(C(=O)N2CCCCC2)cc1 | – | inactive: -12.1%
19 | O=C(Nc1c(-c2ccc(C(F)(F)F)cc2)nc2ncccn12)c1ccc(F)cc1 | – | inactive: -15.2%
20 | CCc1ccc(NC(=O)c2cccc(N3CCCS3(=O)=O)c2)cc1 | – | inactive: 12.4%
21 | Cc1ccc(NC(=O)CN2C(=O)C(c3ccc(C)cc3)=NC23CCCCCC3)cc1 | – | inactive: -11.7%
22 | O=C(O)c1ccc(-c2ccc(/C=C3\NC(=O)N(Cc4ccc(Cl)cc4)C3=O)o2)cc1Cl | inconclusive: 35.5 µM [activator, partial curve, poor fit] | –

Row | Compound | Potency | growth rescue (activation)
23 | CCN(CC)C(=O)c1sc2c(c1C)c(=O)n(CCc1ccccc1)c(=O)n2Cc1ccc(C)cc1 | inconclusive: 35.5 µM [activator, partial curve, poor fit] | –
24 | CCOC(=O)c1ccc(N)cc1 | – | inactive: -18.1%
25 | COC1=C/C(=C/c2c(N)n3nc(CC(=O)N4CCCC4)sc3nc2=O)C=CC1=O | inconclusive: 8.91 µM [activator, partial curve, poor fit] | –
26 | Cc1ccc(-n2cnc3cc(C(=O)NC4CCCCCC4)ccc32)c(C)c1 | inconclusive: 28.2 µM [activator, single point] | –
27 | O=S(=O)(NCCOc1ccccc1F)c1cccc(Br)c1 | – | inactive: 5.77%
28 | Cc1ccc(C)c(N2CCN(C(=O)c3ccc4nsnc4c3)CC2)c1 | – | inactive: 30.8%
29 | CCN(c1ccccc1)S(=O)(=O)c1cc(C(=O)NCC(c2ccc(OC)cc2)N(C)C)ccc1C (stereo not drawn) | inconclusive: 10 µM [activator, partial curve] | –
30 | O=C(CSc1oc(-c2ccco2)nc1S(=O)(=O)c1ccc(F)cc1)NCC1CCCO1 (stereo not drawn) | inconclusive: 17.8 µM [activator, single point] | –
31 | O=C(NC1CCCCN(Cc2ccc(Cl)cc2)C1=O)c1ccc(Cl)cc1Cl (stereo not drawn) | inconclusive: 31.6 µM [activator, single point] | –
32 | CCCCOc1ccc(N2C(=O)CC(N(CCc3ccccc3)C(=O)/C=C/C(=O)O)C2=O)cc1 (stereo not drawn) | inconclusive: 56.2 µM [activator, partial curve, poor fit] | –
33 | CCc1ccc(Cn2nnc3c(=O)[nH]c(C4CCCN(C(=O)c5cccc(Cl)c5)C4)nc32)cc1 (stereo not drawn) | inconclusive: 8.91 µM [activator, partial curve, poor fit] | –
34 | COc1cccc(C(O)c2nc(-c3ccc4ccccc4c3)cs2)c1 (stereo not drawn) | inconclusive: 10 µM [activator, partial curve] | –
35 | O=C(Nc1nccs1)c1ccc(S(=O)(=O)NCC2CCCCC2)cc1 | – | inactive: 15%
36 | CCCCCN(C(=O)CCC(=O)OCC(=O)c1ccc(F)c(F)c1)c1c(N)n(CCCC)c(=O)[nH]c1=O | active: 28.2 µM | –
37 | O=C1CC[C@H](OCc2ccccc2)CCN1[C@H](CSc1ccccc1)Cc1ccccc1 | inconclusive: 31.6 µM [activator, single point] | –
38 | CC(C)c1c(C(=O)N/N=C/c2cccc(OCc3ccccc3)c2)nnn1-c1nonc1N | – | inactive: 37.9%
39 | N#Cc1c(N)nc2c3c(sc(=N)c2c1N)NC(=O)CC3c1ccccc1Cl (stereo not drawn) | inconclusive: 44.7 µM [activator, single point] | –
40 | O=C1COc2ccc(C(=O)CSc3nnc(Cc4cccs4)n3-c3ccc(Cl)cc3)cc2N1 | inconclusive: 35.5 µM [activator, single point] | –
41 | COc1ccccc1C(=O)NC1CCCCN(Cc2ccc(Cl)cc2)C1=O (stereo not drawn) | – | inactive: 29.5%
42 | COCc1cc(Sc2c(Cl)cccc2Cl)nc(-c2ccccc2)n1 | inconclusive: 11.2 µM [activator, partial curve, poor fit] | –
43 | CCOC(=O)[C@]12CCCCC/C=C\1N(CCc1ccc(Cl)cc1)C(=O)[C@H]2CC(=O)N1CCN(C(=O)C2CC2)CC1 | inconclusive: 22.4 µM [activator, partial curve, poor fit] | –
